According to PubChem BioAssay AID1645887 (National Center for Advancing Translational Sciences (NCATS), 2021):
Where “and” joins values, the source holds several entries; their conditions need not be identical. Equal values may be shown once. Out of some 16,000 compounds screened, about 40 (0.2%) were called active. Not shown: some 1% with an inconclusive outcome. Calls follow the shape of the dose curve; as a rule, active = well fitted activation curve with a large enough effect; inconclusive = small, poorly fitted or top-dose-only effect, or another doubt; inactive = no such curve, though single readings can be large or run the other way. This is one part of the list.

biological target: Rap guanine nucleotide exchange factor 4 (Homo sapiens) (UniProt Q8WZA2); assay: Validation qHTS for agonist of cAMP-regulated guanine nucleotide exchange factor 4 (EPAC2); details: EPAC2 Rap1B BODIPY-GDP exchange, fluorescence; activation: hits give high values;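 as to activation: exchange makes BODIPY-GDP fluorescence drop when released from Rap1B; series mostly up to about 150 µM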
Outline: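 Signal normalized against 6.5 mM cAMP as agonist control. Mix of EPAC2 (100 nM), RAP1B-BODIPY-GDP (250 nM) and GDP (50 uM) was read kinetically at 480/540 nm, every 5 min over 30 min, after 5 min room-temperature incubation with compound.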
% is scaled to controls: 0 for no effect and ±100 for the full control effect; potency is read from the fitted curve at half-maximal effect.

Sequence of UniProt Q8WZA2 (Q8WZA2 whole entry, looked up): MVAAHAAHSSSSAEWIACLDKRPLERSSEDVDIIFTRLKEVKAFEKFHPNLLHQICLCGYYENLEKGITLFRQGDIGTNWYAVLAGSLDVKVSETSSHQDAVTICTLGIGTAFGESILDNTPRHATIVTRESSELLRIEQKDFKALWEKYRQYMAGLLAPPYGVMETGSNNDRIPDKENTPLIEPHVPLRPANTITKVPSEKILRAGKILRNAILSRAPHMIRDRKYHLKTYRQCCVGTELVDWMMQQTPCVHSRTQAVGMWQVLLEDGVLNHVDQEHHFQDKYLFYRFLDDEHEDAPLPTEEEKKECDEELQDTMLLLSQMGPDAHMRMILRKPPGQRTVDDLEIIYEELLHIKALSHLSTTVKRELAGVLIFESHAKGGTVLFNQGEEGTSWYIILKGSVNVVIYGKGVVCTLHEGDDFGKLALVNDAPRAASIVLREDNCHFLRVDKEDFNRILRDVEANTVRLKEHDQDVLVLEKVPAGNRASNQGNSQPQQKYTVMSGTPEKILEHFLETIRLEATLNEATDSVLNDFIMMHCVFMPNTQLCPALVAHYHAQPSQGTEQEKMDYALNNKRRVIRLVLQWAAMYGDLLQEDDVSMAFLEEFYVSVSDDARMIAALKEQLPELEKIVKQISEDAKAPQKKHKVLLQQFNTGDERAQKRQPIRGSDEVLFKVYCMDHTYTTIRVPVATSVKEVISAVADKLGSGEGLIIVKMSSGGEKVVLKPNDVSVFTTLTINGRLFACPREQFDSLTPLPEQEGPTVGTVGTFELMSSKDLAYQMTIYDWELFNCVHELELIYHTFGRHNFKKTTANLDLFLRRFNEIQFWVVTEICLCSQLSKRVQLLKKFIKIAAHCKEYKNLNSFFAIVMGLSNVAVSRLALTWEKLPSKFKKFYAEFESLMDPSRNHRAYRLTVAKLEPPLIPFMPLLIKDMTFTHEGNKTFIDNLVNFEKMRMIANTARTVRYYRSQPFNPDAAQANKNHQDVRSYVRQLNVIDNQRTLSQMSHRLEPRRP

| Structure (SMILES) | activation | Potency |
| --- | --- | --- |
| CN(C)C/C=C(/c1ccc(Br)cc1)c1cccnc1 | inactive: -15.2% and inactive: -49% | – |
| CCOc1ccc2ccccc2c1C(=O)N[C@@H]1C(=O)N2[C@@H]1SC(C)(C)[C@@H]2C(=O)O | inactive: -10.7% | – |
| C/C=C/C=C/C(=O)O | inactive: -2.4% | – |
| O=C(c1cccc(F)c1)N1CCC2(CC1)CN(c1ccncc1)C2 | inactive: -3.15% | – |
| COc1cccc(Cn2c(=O)c(C)nc3cnc(N(C)C)nc32)c1 | inactive: -4.41% | – |
| CCN(CC)CCNC(=O)c1cc(Cl)c(N)cc1OC | inactive: 0.679% and inactive: -14.3% and inactive: -34.9% | – |
| COCC(=O)N1CCC2(CC1)CN(C(=O)Nc1cccc(C#N)c1)C2 | inactive: 2.59% | – |
| COc1ccc(CNc2nc(-c3cccc(NS(C)(=O)=O)c3)nc3ccccc23)c(OC)c1 | inactive: 16.6% | – |
| NCCCNCCCCNCCCN | inactive: 2.45% and inactive: -13.7% | – |
| CCCN(CCC)c1ccc(/C=C/c2ccnc3ccccc23)cc1 | – | active: 100 µM |
| COc1ccc(C(=O)N2CCC[C@@]3(CCN(C(=O)Nc4cccc(F)c4)C3)C2)cc1 | inactive: -1.38% | – |
| CC1=NN(c2ccccc2)C(=O)C1 | inactive: 7.58% and inactive: 5.94% and inactive: 12.4% | – |
| Cc1c(C(=O)NCc2ccco2)cnn1-c1ncc2c(n1)-c1ccccc1CC2 | inactive: -0.162% | – |
| NCCCNCCCCN(CCCN)/[N+]([O-])=N/O | inactive: -14.6% | – |
| CCC1CN(CCNC(=O)c2cccc(N3CCCC3=O)c2)Cc2cc(OC)ccc2O1 (stereo unspecified) | inactive: -8.65% | – |
| N#C/C(=C\c1c[nH]c2ccccc12)C(=O)c1ccc(O)c(O)c1 | inactive: -46.8% | – |
| CC(C)NC(=O)N1CCCC2(CCN(S(=O)(=O)c3ccccc3)CC2)C1 | inactive: -15.4% | – |
| COc1ccccc1Oc1c(NS(=O)(=O)c2ccc(C(C)(C)C)cc2)nc(-c2ncccn2)nc1OCCO | inactive: -16.8% | – |
| COCC(=O)N1CCC2(CC1)CCN(c1ccccc1)CC2 | inactive: -0.593% | – |
| CNC(=O)Oc1ccc2c(c1)[C@@]1(C)CCN(C)[C@@H]1N2C | inactive: -2.49% | – |
| NC(N)=NCCC[C@H](N)C(=O)O | inactive: -3.96% and inactive: -9.02% and inactive: -20.1% | – |
| CC(C)Cc1ccc(CC(=O)O)cc1 | inactive: -16.2% | – |
| Cc1cccc(CNC(=O)c2cnn(-c3nccc(-c4cccs4)n3)c2C2CC2)n1 | inactive: -7.31% | – |

| Structure (SMILES) | activation | Potency |
| --- | --- | --- |
| CC1(C)CC2/C(CO)=C/C=C/[C@](C)(O)CC[C@]21O (stereo partly specified) | inactive: -6.49% | – |
| COc1cc(C(=S)N2CCOCC2)cc(OC)c1OC | inactive: -3.93% | – |
| CC(C)(C)Cn1nc(-c2ccc(Cl)cc2)c2c(N)ncnc21 | inactive: -19.7% | – |
| O=C(Nc1cccc(N2CCC(NCc3cnn(-c4ccccc4)n3)CC2)c1)c1cccnc1 | inactive: -3.35% | – |
| N#Cc1cccc(NC(=O)N2CCC3(CC2)CCN(C(=O)c2ccco2)CC3)c1 | inactive: -8.7% | – |
| COCCNc1nc(-c2ccccc2Cl)nc2ccccc12 | inactive: 0.503% | – |
| Cc1cnc(-n2ncc(C(=O)NCC3COCCO3)c2C2CC2)nc1-c1cccs1 (stereo unspecified) | inactive: -6.8% | – |
| CCCCC/C=C\C/C=C\CCCCCCCC(N)=O | inactive: -14.4% | – |
| OCc1cccnc1 | inactive: -9.85% | – |
| c1cncc(CNc2nc(-c3cccnc3)nc3ccccc23)c1 | inactive: -10.3% | – |
| COCCNc1cc(-c2ccccc2CN(C)C)ncn1 | inactive: -7.34% | – |
| CN1CCN(c2ncc3nc(CCc4ccccc4)c(=O)n(CCc4ccccc4)c3n2)CC1 | inactive: 0.7% | – |
| Cc1cc(C)c2nccc(C)c2c1 | inactive: -3.69% | – |
| N[C@H](C(=O)O)[C@@H](O)c1ccc(O)c(O)c1 | inactive: -14.5% | – |
| O=C(O)Cc1c[nH]c2ccc(O)cc12 | inactive: -44% | – |
| O=C(Oc1ccccc1)N1CCC2(CC1)CCN(c1cccc(-c3ccccc3)c1)CC2 | inactive: 2.78% | – |
| COC(=O)c1ccccc1C(=O)c1ccc(OCCN2CCCCC2)cc1 | inactive: -9.51% | – |
| O=C(Nc1cccc(F)c1)N1CCCC2(CCN(C(=O)c3csnn3)CC2)C1 | inactive: 0.113% | – |
| N[C@H](C(=O)O)c1nn[nH]n1 | inactive: -8.72% | – |
| CN1CC(=O)N/C1=N/C(=O)Nc1cccc(Cl)c1 | inactive: 4.84% and inactive: -19.3% | – |
| CC(=O)N[C@H](Cc1c[nH]c2ccccc12)C(N)=O | inactive: -5.85% | – |
| CC(C)=CCC/C(C)=C/CC/C(C)=C/CC/C=C(\C)CC/C=C(\C)CCC=C(C)C | inactive: -2.05% and inactive: -3.92% | – |
| CC(C)OC(=O)c1cc2c(OCC(O)CNC(C)(C)C)cccc2[nH]1 (stereo unspecified) | inactive: -12.5% | – |

| Structure (SMILES) | activation | Potency |
| --- | --- | --- |
| O=S(=O)(c1ccccc1)N1CCC2(CC1)CN(c1ccccn1)C2 | inactive: 0.871% | – |
| Cc1cnc(C)c(-c2cc(F)cc3c2OC(CNC(=O)Cc2ccccc2C)C3)n1 (stereo unspecified) | inactive: 2.68% | – |
| COC(=O)N1CCC2(CC1)CCN(c1ccncc1)CC2 | inactive: -7.64% | – |
| CN(C)C(=O)c1ccc(-c2ccc3ncnc(NCCN4CCOCC4)c3c2)cc1 | inactive: -11.3% | – |
| C=C1C(=O)C23C(O)C1CCC2[C@]12COC3(O)C(O)C1C(C)(C)CC[C@H]2O (stereo partly specified) | inactive: -16.3% | – |
| CC(C)[N+](C)(CCOC(=O)C1c2ccccc2Oc2ccccc21)C(C)C | inactive: -9.32% and inactive: -6.08% | – |
| O=C(NCc1nnc2n1CCN(Cc1ccc(C(F)(F)F)cc1)CC2)c1ccccn1 | inactive: -8.43% | – |
| N[C@@H](CO)C(=O)O | inactive: -1.71% and inactive: -26.1% | – |
| CN1CCC[C@@H]1Cc1c[nH]c2ccc(CCS(=O)(=O)c3ccccc3)cc12 | inactive: -9.46% | – |
| CN(C)CCC=C1c2ccccc2COc2ccccc21 | inactive: -2.24% | – |
| Cc1ncc2c(c1CNC(=O)c1ccc3c(c1)OCO3)CCN(C(=O)/C=C/c1ccc(Cl)cc1)C2 | inactive: -1.75% | – |
| CCC(O)CNC(=O)c1cnn(-c2nccc(-c3cc(C)sc3C)n2)c1C1CC1 (stereo unspecified) | inactive: 7.28% | – |
| CN(C)Cc1ccccc1-c1cncnc1Nc1ccncc1 | inactive: 2.36% | – |
| COc1ccccc1CN1CCOc2ccc(CN3CCCCC3CO)cc2C1 (stereo unspecified) | inactive: -0.288% | – |
| C[C@@H]1[C@H](c2ccccc2)OCCS(=O)(=O)N1Cc1cccc(C(F)(F)F)c1 | inactive: -29.5% | – |
| Cc1c(C(=O)N2CCN(C)CC2)sc2ncnc(NCC3(c4ccccc4)CCOCC3)c12 | inactive: 5.9% | – |
| Cn1c(=O)cnc2cnc(OCc3ccccc3)nc21 | inactive: -15.3% | – |
| C[C@@H]1OC(OC2C(OC3CC[C@@]4(C)C5CC=C6C7CC(C)(C)CC[C@@]7(C(=O)O)CCC6(C)C5(C)CCC4[C@]3(C)CO)OCC(O)C2O)C(O)C(O)C1O (stereo partly specified) | inactive: -17.8% | – |
| N#C/C(=C\c1ccc(O)c(O)c1)C(=O)OCCc1cccs1 | inactive: -14.6% | – |
| COCCn1c(=O)c(-c2ccc(Cl)cc2)nc2cncnc21 | inactive: -6.48% | – |
| CCOC(=O)Cn1cccc1-c1nc(-c2ccc(OC)cc2)c(-c2ccc(OC)cc2)s1 | inactive: -15% | – |
| COc1ccc2[nH]cc(CCNc3ncnc4ccc(-c5ccccc5CN(C)C)cc34)c2c1 | inactive: -8.81% | – |
| C1COC(NC(C2CC2)C2CC2)=N1 | inactive: 1.11% and inactive: 7.3% and inactive: -34.1% | – |

| Structure (SMILES) | activation | Potency |
| --- | --- | --- |
| C#CCN[C@@H]1CCc2ccccc21 | inactive: -4.24% | – |
| C[C@](N)(COP(=O)(O)O)C(=O)O | inactive: 1.27% | – |
| Cn1c(=O)[nH]c2ncn(C)c2c1=O | inactive: 2.58% and inactive: -4.56% and inactive: -18.7% | – |
| Cc1nc2cncnc2n(C2CC2)c1=O | inactive: -14.4% | – |
| COc1ccc2ccccc2c1CN1CCCC(n2cc(C(=O)N3CCCC3)nn2)C1 (stereo unspecified) | inactive: -9.86% | – |
| COc1ccccc1CN1CC[C@@]2(CCCN(C(=O)c3cccn3C)C2)C1 | inactive: -10.6% | – |
| CCOc1ccc(NS(=O)(=O)c2ccc(N)cc2)nn1 | inactive: -12% | – |
| N[C@@H](C(=O)O)c1ccc(C(=O)O)c(O)c1 | inactive: -1.93% | – |
| C=CCSSSCC=C | inactive: -32.3% | – |
| O=C(O)[C@@H]1CN[C@@H](C(=O)O)C1 | inactive: 11.8% | – |
| OCCN1CCN(Cc2ccc3c(c2)CN(Cc2cccn2-c2ccccn2)CCO3)CC1 | inactive: -10.3% | – |
| Cc1cc(C(C)(C)C)c(O)c(C(C)(C)C)c1 | inactive: -35.9% and inactive: -8.06% | – |
| COc1ccc(-c2cc(=S)ss2)cc1 | inactive: -1.8% | – |
| COc1ccc(S[C@@H](CCN2CC[C@H](NC(=O)OCc3ccccc3)CCC2=O)c2ccccc2)cc1 | inactive: -29.5% | – |
| CN(C)c1ccc(-c2cncnc2Nc2ccc(F)cc2)cc1 | inactive: -3.86% | – |
| COc1ccc2c(c1)OCC(Cc1ccc(OC)c(O)c1)C2=O (stereo unspecified) | inactive: 0.531% | – |
| CN(CCO)C(=O)c1cn(C2CCN(Cc3c(F)cccc3Cl)CC2)nn1 | inactive: -17.5% | – |
| CC(C)=CCC1=C(O)[C@](O)(CC=C(C)C)C(=O)C(C(=O)CC(C)C)=C1O | inactive: -18.5% | – |
| CC(C)O | inactive: -6.26% | – |
| CCCS(=O)(=O)NCc1c(C)ncc2c1CCN(C(=O)/C=C/c1ccc(F)cc1F)C2 | inactive: -3.2% | – |
| O=S(=O)(c1ccccc1)N1CCC2(CCCN(Cc3nccs3)C2)CC1 | inactive: -1.34% | – |
| COC(=O)[C@@H]1CCCN1Cc1ccc2c(c1)CN(Cc1coc3ccc(C)cc3c1=O)CCO2 | inactive: -19.1% | – |
